From the supplement of paper PMC9446081 come the findings set out here.

Screen size: about 39,000 compounds; about 220 (0.56%) showed activity. Some of the results follow.
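Also: static incubation at 37 °C against the wild-type strain, values averaged over two biological replicates.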

For the experiment, the system named is Escherichia coli K-12 BW25113. Nature of the experiment: relative growth (OD600 normalised to plate interquartile mean) (fraction); higher = less growth inhibition, active = 0.2 or less. Particulars: 50 µM; LB; incubation time: overnight (16-24 h).
On to `COc1ccc(-c2cc(=O)c3ccccc3o2)cc1`, for which the relative growth was inactive: 1.03.

As to `COc1ccc(S(=O)(=O)Nc2ccc3c(c2)C(=O)N([C@@H](C)CO)C[C@@H](C)[C@@H](CN(C)C(=O)Nc2cccc4ccccc24)O3)cc1`, the relative growth was inactive: 1.01.

In the case of `CO[C@H]1CN(C)C(=O)c2cc(NS(=O)(=O)c3cn(C)cn3)ccc2OC[C@H](C)N(CC2CC2)C[C@@H]1C`, the relative growth is inactive: 1.02.

`C[C@@H]1CN([C@@H](C)CO)C(=O)c2cc(C#CC3CCCCC3)cnc2O[C@H]1CN(C)C(=O)c1ccncc1`: the relative growth is inactive: 0.996.

Regarding `C[C@@H]1CCCCO[C@@H](CN(C)C(=O)Nc2ccc3c(c2)OCO3)[C@@H](C)CN([C@H](C)CO)C(=O)c2cc(NC(=O)CCCCCC(=O)Nc3ccccc3N)ccc2O1`, the relative growth was inactive: 0.96.

Consider `COc1cccc(-n2cc([C@@H](C)N)cn2)c1`, for which the relative growth is inactive: 1.02.

Turning to `C[C@@H]1CCCCO[C@@H](CN(C)Cc2ccncc2)[C@@H](C)CN([C@H](C)CO)C(=O)c2cc(NC(=O)Nc3cccc4ccccc34)ccc2O1`, the relative growth is inactive: 1.05.

`C[C@@H]1CCCCO[C@H](CN(C)C(=O)Nc2ccc(F)cc2)[C@H](C)CN([C@H](C)CO)C(=O)c2cc(NC(=O)Nc3ccc(F)cc3)ccc2O1`: the relative growth was inactive: 0.984.

`CC(C)(C)[S@](=O)N1Cc2cc(C(=O)N3CCCCC3)nc(-c3cccc(-c4ccccc4F)c3)c2[C@@H]1CCO`: the relative growth was inactive: 1.

Turning to `COCCOC(=O)N1C(=O)[C@@]2(c3cc(C#Cc4ccc(OC)cc4)ccc31)[C@H](C(=O)N1CCc3cc(OC)c(OC)cc3C1)[C@H]1C(=O)O[C@H](c3ccccc3)[C@H](c3ccccc3)N1[C@@H]2c1ccccc1OCCO`, the relative growth is inactive: 1.07.

Turning to `Cc1ccc(S(=O)(=O)Nc2ccc3c(c2)CC(=O)N([C@@H](C)CO)C[C@H](C)[C@@H](CN(C)S(=O)(=O)c2cn(C)cn2)O3)cc1`, the relative growth is inactive: 1.01.

As to `COc1ccc(S(=O)(=O)Nc2cccc3c2O[C@@H](CN(C)Cc2ccncc2)[C@H](C)CN([C@@H](C)CO)C3=O)cc1`, the relative growth is inactive: 0.983.

As for `COc1ccc(S(=O)(=O)Nc2ccc3c(c2)C(=O)N([C@@H](C)CO)C[C@H](C)[C@H](CN(C)C(=O)NC(C)C)O3)cc1`, the relative growth is inactive: 0.988.

As for `O=C(C[C@H]1CC[C@@H]2[C@H](COC[C@@H](O)CN2S(=O)(=O)c2cccc(F)c2)O1)NCCCN1CCOCC1`, the relative growth was inactive: 0.966.

As to `CC(C)NC(=O)N[C@@H]1C=C[C@@H](CC(=O)NCCN2CCCC2)O[C@@H]1CO`, the relative growth is inactive: 1.01.

Consider `C[C@@H]1CN([C@@H](C)CO)C(=O)c2cc(NS(=O)(=O)c3ccccc3)ccc2O[C@@H](C)CCCCO[C@@H]1CN(C)Cc1ccc(C(=O)O)cc1`, for which the relative growth was inactive: 1.02.

As to `O=C(Nc1ccc(C(F)(F)F)cc1)Nc1ccc2c(c1)[C@@H]1C[C@H](CC(=O)N3CCc4ccccc4C3)O[C@H](CO)[C@@H]1O2`, the relative growth is inactive: 1.04.

For `C[C@@H]1CN([C@H](C)CO)C(=O)Cc2cc(NS(=O)(=O)c3ccc(F)cc3)ccc2O[C@@H]1CN(C)S(C)(=O)=O`, the relative growth was inactive: 0.995.

In the case of `Cc1noc(C)c1S(=O)(=O)N(C)C[C@@H]1OCc2cn(nn2)CCCC(=O)N([C@H](C)CO)C[C@@H]1C`, the relative growth was inactive: 1.01.

`C[C@H](CO)N1C[C@H](C)[C@@H](CN(C)S(C)(=O)=O)Oc2ccc(NC(=O)Nc3ccc4c(c3)OCO4)cc2C1=O`: the relative growth is inactive: 0.981.

With `COc1cccc(C#Cc2ccc3c(c2)O[C@H](CN(C)C(C)=O)[C@@H](C)CN([C@@H](C)CO)S3(=O)=O)c1`, the relative growth was inactive: 1.01.

As for `O=c1[nH]/c(=C/c2ccco2)c(=O)[nH]/c1=C\c1ccco1`, the relative growth was inactive: 0.829.

In the case of `Cc1ccc(S(=O)(=O)N(C)C[C@@H]2OCCCC[C@@H](C)Oc3ccc(NC(=O)Nc4ccccc4)cc3C(=O)N([C@@H](C)CO)C[C@@H]2C)cc1`, the relative growth was inactive: 1.02.

With `C[C@@H]1CN([C@H](C)CO)C(=O)Cc2cc(NC(=O)Nc3ccc4c(c3)OCO4)ccc2O[C@H]1CN(C)C(=O)Nc1ccc(C(F)(F)F)cc1`, the relative growth was inactive: 0.984.

Turning to `C[C@H](CO)N1C[C@H](C)[C@H](CN(C)C(=O)c2ccccc2)OCCCC[C@H](C)Oc2ccc(NC(=O)Nc3ccc4c(c3)OCO4)cc2C1=O`, the relative growth is inactive: 0.998.

Regarding `C[C@@H]1CN([C@H](C)CO)C(=O)c2cc(NC(=O)C3CCCCC3)ccc2O[C@@H](C)CCCCO[C@H]1CN(C)C(=O)c1ccncc1`, the relative growth is inactive: 1.

For the molecule `C[C@H]1CN([C@@H](C)CO)C(=O)c2cc(NC(=O)Cn3cnnn3)ccc2O[C@H]1CN(C)Cc1ccc2c(c1)OCO2`, the relative growth is inactive: 1.

Turning to `C[C@@H]1CN([C@H](C)CO)C(=O)c2cc(NS(C)(=O)=O)ccc2O[C@@H]1CN(C)S(=O)(=O)c1ccccc1`, the relative growth was inactive: 0.998.

Consider `C[C@@H]1CN([C@H](C)CO)C(=O)c2cc(NS(C)(=O)=O)ccc2O[C@@H]1CN(C)C(=O)Nc1ccccc1`, for which the relative growth is inactive: 1.01.

`Cc1cc(C)c(-n2cccc2CN)c(C)c1`: the relative growth was inactive: 1.01.

As to `C[C@H]1CN([C@@H](C)CO)C(=O)Cc2cc(NS(=O)(=O)c3ccccc3)ccc2O[C@H]1CN(C)S(=O)(=O)c1ccc(F)cc1`, the relative growth was inactive: 1.01.

For `Cc1ccc(S(=O)(=O)Nc2ccc3c(c2)C(=O)N([C@@H](C)CO)C[C@H](C)[C@@H](CN(C)C(=O)C2CCCCC2)OCCCC[C@H](C)O3)cc1`, the relative growth is inactive: 0.998.

As to `C[C@H]1CN([C@@H](C)CO)C(=O)Cc2cc(NC(=O)c3ccncc3)ccc2O[C@H]1CN(C)S(=O)(=O)c1ccccc1`, the relative growth was inactive: 1.01.

Regarding `CN(C)Cc1cn(CC[C@@H]2CC[C@@H](N)[C@H](CO)O2)nn1`, the relative growth is inactive: 1.01.

Consider `C[C@@H]1CN([C@H](C)CO)C(=O)CCCn2nncc2CO[C@@H]1CN(C)S(=O)(=O)c1ccc(Oc2ccccc2)nc1`, for which the relative growth was inactive: 1.03.

With `CCS(=O)(=O)Nc1ccc2c(c1)C(=O)N(C)[C@H]1CC[C@H](CC(=O)N3CCN(C)CC3)O[C@@H]1CO2`, the relative growth is inactive: 1.

In the case of `COC(=O)c1c(C(=O)OC)c2n(c(=O)c1-c1ccccc1)[C@@H]1c3ccccc3O[C@@](COCc3ccc(OC)cc3)([C@@H]1CO[Si](C)(C)C(C)(C)C)N2C`, the relative growth was inactive: 1.03.
